Among all 150,000 compounds or so, about 540 (0.36%) showed an effect of 50% or more. The list shows a part of the results.
tested on: Plasmodium falciparum; assay: Primary screen in NF54 nanoGlo assay, in single point, at 2uM, 72h; a lower Z score goes with more inhibition; assay type: functional, Erythrocyte; conditions: timepoint 72 hour

Row | SMILES | % Inhibition [%] | Z score
1 | C[C@](O)(CNc1nccnc1C#N)c1ccc(F)cc1F | -12 | 1.9
2 | C#Cc1ccc(CN[C@@H](CC(C)C)C(=O)NC)cc1 | -1 | 0.12
3 | Cc1nn(C(C)C)c(C)c1NS(=O)(=O)c1ccc2c(c1)CC(=O)N2 | -5 | 0.72
4 | O=C1Nc2ccccc2C[C@@H]1NS(=O)(=O)C1CN(C(=O)C2CCCC2)C1 | -10 | 0.92
5 | Cc1nc[nH]c1CN1C[C@H]2CC[C@@H](C1)N(C(=O)c1ccc3[nH]cnc3c1)C2 | 1 | -0.19
6 | CCCCN(C)CCC(=O)Nc1ccc(Br)cc1 | -1 | 0.08
7 | COc1cccc(CC(=O)OCc2snnc2C)c1 | -14 | 1.81
8 | CCc1nn(C)c(Cl)c1CN1[C@@H]2CC[C@H]1CN(C)CC2 | -4 | 0.89
9 | COc1cc2c(cc1CN(CCO)Cc1nccs1)OCO2 | 11 | -2.08
10 | CCOc1ccccc1NC(=O)c1ccc(F)c(S(=O)(=O)N2CCC2)c1 | 1 | -0.21
11 | CCCOC[C@H]1CCN(C(=O)c2cccnc2NC)C1 | -2 | 0.4
12 | CC[C@H](NC(=O)Nc1c(C)c(-c2ccccc2)nn1C)c1cnn(C)c1 | 2 | -0.34
13 | O=c1[nH]c2cc3c(cc2c(-c2ccc(Cl)cc2)c1CN1CCOCC1)OCCO3 | 2 | -0.28
14 | O=C(c1ccccc1F)N(Cc1cccc(Cl)c1)C[C@H]1CC(c2ccccc2)=NO1 | -18 | 1.91
15 | O=C(c1cc(=O)[nH]c2ccc(F)cc12)N1CCC[C@@]2(CCOC2)C1 | 3 | -0.52
16 | CN1CCC[C@@H]1CN1CCO[C@H](c2ccc(Cl)cc2)C1 | 2 | -0.27
17 | CC(C)c1ccc(-c2cc3c(=O)n(CCC(=O)NC[C@H]4CCCO4)ccn3n2)cc1 | -19 | 2.42
18 | C[C@@H](CC(=O)c1cccc(F)c1)C(=O)N(C)Cc1ccccn1 | -1 | 0.15
19 | Cc1nc(C)c(CC(=O)N2CCc3ccccc32)c(=O)[nH]1 | -6 | 0.9
20 | O=C1CN(c2cc(N3CCCC3)ncn2)CCN1c1cccs1 | -16 | 1.67
21 | Cn1cccc1[C@@H]1CCCN1CCN1C(=O)NC2(CCCC2)C1=O | -2 | 0.23

Row | SMILES | % Inhibition [%] | Z score
22 | Nc1nccnc1C(=O)Nc1cccc(-n2ccnn2)c1 | -8 | 1.55
23 | CC(C)CS(=O)(=O)NC(=O)CCOc1ccccc1 | 3 | -0.44
24 | C[C@H]1CN(C)CCCN1C(=O)c1cc(-c2cnn(C)c2)nc2ccccc12 | -13 | 1.84
25 | CC(Cn1ccnc1)NC(=O)C(C)Oc1ccc(-c2ccccc2)cc1 (centres undefined) | -4 | 0.66
26 | CN(C(=O)CCc1cccnc1)[C@H]1CCCN(Cc2ccccc2)C1 | -5 | 0.55
27 | COc1ncccc1CN(CCCO)c1ccccc1 | -11 | 1.22
28 | CC(=O)N(C)c1cccc(NC(=O)c2nccnc2N)c1 | -2 | 0.18
29 | Cc1nc(C2CC2)sc1C(=O)NC(C)(C)c1cc(C(F)F)on1 | 8 | -1.07
30 | O=C(CN1CCCC[C@H](O)C1=O)Nc1ccc2c(c1)CC(=O)N2 | -7 | 1.31
31 | Cc1nn(-c2ccc3nnc(C)n3n2)c(C)c1CCC(=O)N1CCCCCC1 | -10 | 1.28
32 | O=C1CN(C(=O)Cn2ccnc2)c2ccccc2N1 | -9 | 1.06
33 | CN1CC2(CCN(Cc3ccccc3OCCc3ccccc3)CC2)CC1=O | 0 | -0.02
34 | Cc1cnn(CCC(=O)N2CCN([C@@H](C)c3nccs3)CC2)c1 | 2 | -0.31
35 | O=C(NCC(F)(F)C1(O)CCCCC1)c1csnn1 | 10 | -1.95
36 | CC(=O)c1nn(C(C)C)cc1OCCOc1ccccc1F | -1 | 0.22
37 | Cc1cc(C(=O)NC[C@H](Cc2ccc3ccccc3c2)C(=O)O)no1 | -10 | 1.89
38 | CN(Cc1cccnc1)C(=O)Nc1ccncc1F | -17 | 2.26
39 | Cc1cnc(NCC2(Cn3ccnc3C)CC2)nc1 | -2 | 0.27
40 | CCNC(=O)[C@@H]1C[C@@H](NCc2ccc(C(F)(F)F)cc2)CN1C1Cc2ccccc2C1 | -14 | 1.93
41 | O=C(NCCO)c1cccc(NC[C@H]2CCC=CO2)c1 | 1 | -0.09
42 | CCNC(=O)NC(=O)CNC(C)(C)c1nc(C)c(C)s1 | -6 | 0.77
